Screen size: about 39,000 compounds; about 220 (0.56%) showed activity. This is one part of the list.

This passage reports relative growth results from the supplement of paper PMC9446081.
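Note: static incubation at 37 °C against the wild-type strain, values averaged over two biological replicates.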

The assay concerns Escherichia coli K-12 BW25113. The experiment in a line: relative growth (OD600 normalised to plate interquartile mean) (fraction); higher = less growth inhibition, active = 0.2 or less. To be noted: 50 µM; LB; incubation time: overnight (16-24 h).
In the case of `C[C@H](CO)N1C[C@H](C)[C@H](CN(C)Cc2ccc(C(=O)O)cc2)OCCCC[C@H](C)Oc2ccc(NC(=O)Nc3cccc4ccccc34)cc2C1=O`, the relative growth is inactive: 1.04. `C[C@@H]1CCCCO[C@H](CN(C)S(C)(=O)=O)[C@@H](C)CN([C@H](C)CO)C(=O)c2cc(NS(=O)(=O)c3cn(C)cn3)ccc2O1`: the relative growth was inactive: 0.989. Regarding `NC(=O)NCC#Cc1ccc2c(c1)[C@]1(C(=O)N2)[C@H](C(=O)Nc2nc3ccccc3s2)[C@H]2C(=O)O[C@H](c3ccccc3)[C@H](c3ccccc3)N2[C@@H]1c1ccccc1OCCO`, the relative growth was inactive: 1.04. The same measure for `Cc1ccc(S(=O)(=O)Nc2ccc3c(c2)C(=O)N([C@H](C)CO)C[C@H](C)[C@@H](CN(C)C(=O)Nc2ccc(C(F)(F)F)cc2)OCCCC[C@H](C)O3)cc1`: inactive: 1; for `CCn1nnc2c(N3CCOCC3)ncnc21`: inactive: 0.986. For the compound `C[C@H]1CCCCO[C@@H](CN(C)S(=O)(=O)c2cccs2)[C@@H](C)CN([C@@H](C)CO)C(=O)c2cc(NC(=O)Nc3ccc(F)cc3)ccc2O1`, the relative growth was inactive: 1.04. With `COc1ccc(N2C[C@H](C(N)=O)CC2=O)cc1` the figure was inactive: 1.03; with `O=C(CS)NCCCCCCNC(=O)[C@@H]1C[C@@H]2C(=O)NCC(=O)N2[C@@H]1c1cccc(OCCO)c1`, inactive: 1.04. Regarding `C[C@@H]1CN([C@H](C)CO)C(=O)c2cc(NC(=O)Nc3ccc4c(c3)OCO4)ccc2O[C@@H](C)CCCCO[C@@H]1CN(C)Cc1ccc(Cl)c(Cl)c1`, the relative growth is inactive: 1.02.

As to `COc1ccc(S(=O)(=O)Nc2cccc3c2O[C@H](CN(C)Cc2ccc(-c4ccccc4)cc2)[C@@H](C)CN([C@@H](C)CO)C3=O)cc1`, the relative growth was inactive: 1.05. The same measure for `C[C@@H]1O[C@@H]1P(=O)(O)O`: inactive: 1.02; for `C[C@@H]1CCCCO[C@@H](CN(C)Cc2ccc(C(F)(F)F)cc2)[C@@H](C)CN([C@H](C)CO)C(=O)c2cc(NC(=O)Nc3ccc4c(c3)OCO4)ccc2O1`: inactive: 1.02; for `C[C@@H]1CN([C@@H](C)CO)C(=O)c2cc(NC(=O)Nc3ccc4c(c3)OCO4)ccc2O[C@@H](C)CCCCO[C@@H]1CN(C)C(=O)Nc1ccc2c(c1)OCO2`: inactive: 1.03. With `C[C@H](CO)N1C[C@H](C)[C@@H](CN(C)S(=O)(=O)c2ccc(F)cc2)Oc2ccc(NC(=O)c3ccncc3)cc2C1=O` the figure was inactive: 0.99. With `COc1ccc(S(=O)(=O)Nc2ccc3c(c2)C(=O)N([C@H](C)CO)C[C@@H](C)[C@H](CN(C)S(=O)(=O)c2ccc(C)cc2)O3)cc1` the figure was inactive: 0.999; with `Cc1noc(C)c1NC(=O)N(C)C[C@@H]1Oc2c(NC(=O)c3ccc(-c4nccs4)cc3)cccc2C(=O)N([C@@H](C)CO)C[C@@H]1C`, inactive: 1.05.

In the case of `Cc1ccc(S(=O)(=O)N(C)C[C@H]2OCCCC[C@@H](C)Oc3ccc(NC(=O)C4CCCCC4)cc3C(=O)N([C@H](C)CO)C[C@@H]2C)cc1`, the relative growth was inactive: 1.01. As for `Cc1ccc(S(=O)(=O)N(C)C[C@@H]2Oc3ncc(C#CCC(C)C)cc3C(=O)N([C@@H](C)CO)C[C@H]2C)cc1`, the relative growth was inactive: 1.02. The same measure for `COC(=O)C(CC#Cc1ccc2c(c1)[C@]1(C(=O)N2)[C@H](C(=O)N2CCc3cc(OC)c(OC)cc3C2)[C@H]2C(=O)O[C@H](c3ccccc3)[C@H](c3ccccc3)N2[C@@H]1c1ccc(O)cc1)C(=O)OC`: inactive: 0.989. As for `Nc1ccn([C@H]2O[C@@H](CO)[C@@H](O)[C@@H]2O)c(=O)n1`, the relative growth was inactive: 1.01. For `CN(C)CC(=O)N[C@H]1CC[C@H](CC(=O)NCCN2CCCCC2)O[C@@H]1CO`, the relative growth is inactive: 0.97. Consider `C[C@H](C(=O)N(C)C[C@H]1OCc2ccccc2-c2c(n(C)c3ccccc23)C(=O)N([C@H](C)CO)C[C@@H]1C)c1ccccc1`, for which the relative growth was inactive: 0.994. In the case of `C[C@@H]1CN([C@H](C)CO)C(=O)c2cc(NC(=O)C3CCCCC3)ccc2O[C@@H]1CN(C)Cc1ccc(Oc2ccccc2)cc1`, the relative growth was inactive: 0.965.

`C[C@H](CO)N1C[C@H](C)[C@@H](CN(C)C(=O)Nc2ccc(C(F)(F)F)cc2)OCCCC[C@H](C)Oc2ccc(NC(=O)c3ccncc3)cc2C1=O`: the relative growth is inactive: 0.929.

With `C[C@@H]1CN([C@@H](C)CO)C(=O)CCCn2nncc2CO[C@H]1CN(C)C(=O)Nc1ccc2c(c1)OCCO2`, the relative growth is inactive: 0.99. For the compound `COc1ccccc1NC(=O)N(C)C[C@@H]1OCc2ccccc2-c2c(n(C)c3ccccc23)C(=O)N([C@H](C)CO)C[C@@H]1C`, the relative growth is inactive: 1.01.

Consider `CC(C)NC(=O)N(C)C[C@H]1Oc2ccc(NC(=O)C3CCCCC3)cc2CC(=O)N([C@@H](C)CO)C[C@@H]1C`, for which the relative growth is inactive: 1.01. With `C[C@@H]1CN([C@@H](C)CO)C(=O)c2cc(NC(=O)Nc3cccc4ccccc34)ccc2O[C@@H](C)CCCCO[C@H]1CN(C)C(=O)CCCN(C)C` the figure was inactive: 0.978; with `C[C@H](CO)N1C[C@H](C)[C@@H](CN(C)C(=O)c2ccccc2)OCCCC[C@H](C)Oc2ccc(NC(=O)Nc3cccc4ccccc34)cc2C1=O`, inactive: 1.02. With `COc1ccc(S(=O)(=O)N(C)C[C@@H]2OCCCC[C@@H](C)Oc3ccc(NS(C)(=O)=O)cc3C(=O)N([C@@H](C)CO)C[C@@H]2C)cc1` the figure was inactive: 0.921. With `C[C@@H]1CN([C@H](C)CO)C(=O)c2c(c3ccccc3n2C)-c2ccccc2CO[C@@H]1CN(C)Cc1ccccc1` the figure was inactive: 0.975; with `COCC(=O)N1C[C@H](C)[C@H](OC)CN(C)C(=O)c2cc(NC(=O)c3ccc(F)cc3)ccc2OC[C@H]1C`, inactive: 1.01; with `C[C@@H]1CN([C@@H](C)CO)C(=O)c2cccc(NC(=O)c3ccc(-c4nccs4)cc3)c2O[C@@H]1CN(C)S(=O)(=O)c1cn(C)cn1`, inactive: 1.02. Regarding `C[C@H](CO)N1C[C@H](C)[C@H](CN(C)C(=O)Nc2cccc3ccccc23)OCCCC[C@H](C)Oc2ccc(NC(=O)C3CCCCC3)cc2C1=O`, the relative growth is inactive: 1.02. With `CCc1nc2ccc(C(=O)Nc3ccc(OC)c(OC)c3)cn2c1N(CC)Cc1cccc(Br)c1` the figure was inactive: 1. The same measure for `C[C@@H]1CCCCO[C@@H](CN(C)S(=O)(=O)c2ccc(Cl)cc2)[C@H](C)CN([C@H](C)CO)C(=O)c2cc(NC(=O)c3ccccc3)ccc2O1`: inactive: 1.03; for `C[C@H]1CN([C@@H](C)CO)C(=O)c2cccc(NC(=O)c3ccc(-c4nccs4)cc3)c2O[C@@H]1CN(C)Cc1ccccc1`: inactive: 1.03. With `COCC#Cc1cnc2c(c1)C(=O)N([C@@H](C)CO)C[C@H](C)[C@H](CN(C)S(=O)(=O)c1cn(C)cn1)O2` the figure was inactive: 0.978.

As for `CN1C=C(C(=O)OCCS(C)(=O)=O)C(C(=O)OCCS(C)(=O)=O)=CC(c2ccc(CO)cc2)=C[C@@H]1C1CC1`, the relative growth was inactive: 1.02. Consider `C[C@H](CO)N1C[C@H](C)[C@@H](CN(C)C(=O)Cc2ccccc2)OCCCC[C@H](C)Oc2ccc(NC(=O)CCC(F)(F)F)cc2C1=O`, for which the relative growth was inactive: 1.04. Turning to `C[C@@H]1CCCCO[C@H](CN(C)C(=O)C2CCCCC2)[C@@H](C)CN([C@H](C)CO)C(=O)c2cc(NC(=O)CCCCCC(=O)Nc3ccccc3N)ccc2O1`, the relative growth was inactive: 0.973. The same measure for `CCCN(C)C[C@@H]1OCCCC[C@H](C)Oc2ccc(NC(=O)C3CCCCC3)cc2C(=O)N([C@@H](C)CO)C[C@@H]1C`: inactive: 1; for `C[C@H](CO)N1C[C@H](C)[C@@H](CN(C)S(=O)(=O)c2ccc(-c3ccccc3)cc2)OCc2cn(nn2)CCCC1=O`: inactive: 1; for `COc1ccc(NC(=O)Nc2ccc3c(c2)C(=O)N([C@@H](C)CO)C[C@H](C)[C@@H](CN(C)S(=O)(=O)c2cccs2)OCCCC[C@H](C)O3)cc1`: inactive: 1.02. As for `C[C@H]1CN([C@@H](C)CO)C(=O)c2cccc(NC(=O)Nc3ccc4c(c3)OCO4)c2O[C@H]1CN(C)Cc1ccc(-c2ccccc2)cc1`, the relative growth is inactive: 1.01. With `C[C@@H]1CN([C@@H](C)CO)C(=O)c2cc(NC(=O)Cc3cn(C)c4ccccc34)ccc2O[C@H]1CN(C)Cc1ccc(-c2ccccc2)cc1` the figure was inactive: 0.989; with `C[C@H](CO)N1C[C@H](C)[C@@H](CN(C)Cc2ccccc2)Oc2ccc(NC(=O)Nc3ccc(C(F)(F)F)cc3)cc2CC1=O`, inactive: 0.985; with `C[C@@H]1CCCCO[C@@H](CN(C)S(=O)(=O)c2ccc(Cl)cc2)[C@@H](C)CN([C@@H](C)CO)C(=O)c2cc(NC(=O)Cc3ccccc3)ccc2O1`, inactive: 1.02. With `CC(=O)OC1CC2C(C)(C)C(O)CCC2(C)C2CCC3(C)C(=CC(=O)OC3c3ccoc3)C12C` (stereo not drawn) [3beta-HYDROXYDEOXODIHYDRODEOXYGEDUNIN] the figure was inactive: 0.964; with `C[C@@H]1CN([C@H](C)CO)C(=O)c2cc(NC(=O)CCCCCC(=O)Nc3ccccc3N)ccc2O[C@H]1CN(C)C(=O)Nc1ccc(C(F)(F)F)cc1`, inactive: 0.988; with `C[C@H]1CN([C@@H](C)CO)C(=O)c2cccc(NS(=O)(=O)c3cn(C)cn3)c2O[C@@H]1CN(C)S(=O)(=O)c1cn(C)cn1`, inactive: 1.01. With `CC(=O)N[C@H]1[C@H]([C@H](O)[C@H](O)CO)OC(C(=O)O)=C[C@@H]1NC(=N)N` the figure was inactive: 0.991; with `O=C(C[C@@H]1CC[C@@H]2[C@H](COC[C@@H](O)CN2S(=O)(=O)c2ccccc2)O1)NCCN1CCCC1`, inactive: 0.994.

As for `Cn1cnc(S(=O)(=O)N[C@H]2CC[C@@H](CC(=O)N3CCN(c4ccccc4)CC3)O[C@@H]2CO)c1`, the relative growth was inactive: 0.986.

Turning to `C[C@@H]1CN([C@@H](C)CO)C(=O)Cc2cc(NS(=O)(=O)c3cccs3)ccc2O[C@@H]1CN(C)S(C)(=O)=O`, the relative growth was inactive: 0.987.
